No constants are given. Whether binding was seen depends on the method and setting. Binding seen in cells or lysates may run through a third protein. Some binding calls cover weakened binding; strength is not graded here. Tags and fused reporters may be left off the sequences shown.
Each substance was assayed against T1, HA-tagged Apn2 (budding yeast) (UniProt P38207) (assay: co-IP; yeast lysate (50 mM Na-phosphate pH 8.0, 300 mM NaCl, 0.01% Tween-20); HA-tagged Apn2 held on anti-HA magnetic beads, 30 °C for 30 min; partners found by Western blot).
T1 sequence: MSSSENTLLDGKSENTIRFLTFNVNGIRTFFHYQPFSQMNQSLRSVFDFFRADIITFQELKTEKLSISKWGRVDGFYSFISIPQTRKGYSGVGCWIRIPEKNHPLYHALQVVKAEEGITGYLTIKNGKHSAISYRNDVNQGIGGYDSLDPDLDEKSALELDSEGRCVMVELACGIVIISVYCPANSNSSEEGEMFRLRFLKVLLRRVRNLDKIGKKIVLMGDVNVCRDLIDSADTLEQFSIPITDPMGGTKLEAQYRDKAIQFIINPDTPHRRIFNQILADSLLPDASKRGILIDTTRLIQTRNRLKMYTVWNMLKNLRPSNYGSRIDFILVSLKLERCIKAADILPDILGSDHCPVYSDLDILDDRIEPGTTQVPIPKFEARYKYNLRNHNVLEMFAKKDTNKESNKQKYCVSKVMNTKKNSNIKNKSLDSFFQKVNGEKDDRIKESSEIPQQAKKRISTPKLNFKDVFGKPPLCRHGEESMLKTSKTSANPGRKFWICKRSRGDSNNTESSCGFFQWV

Chains of the proteins cited; added tags and fusions are not shown.
UniProt P10591: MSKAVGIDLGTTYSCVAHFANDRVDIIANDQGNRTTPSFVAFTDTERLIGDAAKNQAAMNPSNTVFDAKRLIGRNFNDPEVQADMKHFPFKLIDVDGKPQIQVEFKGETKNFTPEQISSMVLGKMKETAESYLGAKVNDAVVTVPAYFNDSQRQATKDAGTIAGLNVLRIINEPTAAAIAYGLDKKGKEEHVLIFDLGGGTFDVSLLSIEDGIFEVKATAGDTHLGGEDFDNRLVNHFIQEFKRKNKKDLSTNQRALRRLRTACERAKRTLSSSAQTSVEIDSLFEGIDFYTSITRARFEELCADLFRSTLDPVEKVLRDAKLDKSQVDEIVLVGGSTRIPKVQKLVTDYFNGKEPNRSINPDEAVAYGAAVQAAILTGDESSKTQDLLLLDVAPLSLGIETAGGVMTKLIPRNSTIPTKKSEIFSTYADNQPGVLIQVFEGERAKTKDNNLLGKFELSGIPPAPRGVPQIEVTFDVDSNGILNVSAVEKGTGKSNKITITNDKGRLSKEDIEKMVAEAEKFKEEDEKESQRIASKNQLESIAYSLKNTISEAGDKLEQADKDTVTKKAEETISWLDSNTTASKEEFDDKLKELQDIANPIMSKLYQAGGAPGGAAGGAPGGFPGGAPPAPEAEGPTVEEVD
UniProt P22202: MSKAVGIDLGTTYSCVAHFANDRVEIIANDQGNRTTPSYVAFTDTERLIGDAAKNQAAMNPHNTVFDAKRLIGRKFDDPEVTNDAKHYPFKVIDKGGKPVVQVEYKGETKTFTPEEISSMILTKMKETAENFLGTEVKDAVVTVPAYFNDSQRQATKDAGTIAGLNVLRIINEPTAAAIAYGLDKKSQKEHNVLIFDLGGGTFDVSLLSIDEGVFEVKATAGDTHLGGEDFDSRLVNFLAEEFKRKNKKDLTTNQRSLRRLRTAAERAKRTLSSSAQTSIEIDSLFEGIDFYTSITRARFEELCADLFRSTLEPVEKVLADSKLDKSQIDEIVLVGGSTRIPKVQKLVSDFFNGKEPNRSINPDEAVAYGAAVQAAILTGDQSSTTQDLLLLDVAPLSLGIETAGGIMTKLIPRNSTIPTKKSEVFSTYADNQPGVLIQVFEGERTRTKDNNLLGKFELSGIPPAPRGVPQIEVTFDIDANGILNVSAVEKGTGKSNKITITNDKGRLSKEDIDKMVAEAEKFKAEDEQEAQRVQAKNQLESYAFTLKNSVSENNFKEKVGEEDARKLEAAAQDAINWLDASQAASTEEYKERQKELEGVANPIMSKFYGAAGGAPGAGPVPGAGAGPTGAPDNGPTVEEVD
UniProt P09435: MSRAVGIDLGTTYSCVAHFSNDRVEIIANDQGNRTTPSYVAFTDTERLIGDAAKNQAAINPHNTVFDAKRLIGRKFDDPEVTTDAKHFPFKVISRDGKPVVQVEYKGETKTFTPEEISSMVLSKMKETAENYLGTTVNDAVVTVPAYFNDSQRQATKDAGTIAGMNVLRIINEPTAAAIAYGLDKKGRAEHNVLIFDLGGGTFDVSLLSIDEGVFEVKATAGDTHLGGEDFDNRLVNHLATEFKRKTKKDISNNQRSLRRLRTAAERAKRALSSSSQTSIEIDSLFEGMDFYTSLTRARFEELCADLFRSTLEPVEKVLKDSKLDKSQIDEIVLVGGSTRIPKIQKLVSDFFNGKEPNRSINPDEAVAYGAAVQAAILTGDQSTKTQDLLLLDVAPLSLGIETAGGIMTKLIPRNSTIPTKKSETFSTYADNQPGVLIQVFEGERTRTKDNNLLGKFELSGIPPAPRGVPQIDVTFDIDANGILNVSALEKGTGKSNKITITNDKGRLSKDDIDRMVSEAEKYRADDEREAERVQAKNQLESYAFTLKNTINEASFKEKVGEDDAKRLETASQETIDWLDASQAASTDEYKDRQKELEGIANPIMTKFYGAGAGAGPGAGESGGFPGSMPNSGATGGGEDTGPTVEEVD
UniProt P25491: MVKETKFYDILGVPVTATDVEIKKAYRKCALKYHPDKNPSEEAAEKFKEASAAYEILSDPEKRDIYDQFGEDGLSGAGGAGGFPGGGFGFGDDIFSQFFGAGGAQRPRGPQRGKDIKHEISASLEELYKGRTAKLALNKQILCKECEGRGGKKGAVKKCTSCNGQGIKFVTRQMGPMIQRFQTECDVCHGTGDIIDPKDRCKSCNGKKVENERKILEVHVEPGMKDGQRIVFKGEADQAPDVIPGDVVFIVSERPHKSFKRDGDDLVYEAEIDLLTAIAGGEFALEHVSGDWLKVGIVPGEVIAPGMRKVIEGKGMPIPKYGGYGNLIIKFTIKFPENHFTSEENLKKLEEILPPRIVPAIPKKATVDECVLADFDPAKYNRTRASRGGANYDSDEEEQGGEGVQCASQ
UniProt P0DMV8: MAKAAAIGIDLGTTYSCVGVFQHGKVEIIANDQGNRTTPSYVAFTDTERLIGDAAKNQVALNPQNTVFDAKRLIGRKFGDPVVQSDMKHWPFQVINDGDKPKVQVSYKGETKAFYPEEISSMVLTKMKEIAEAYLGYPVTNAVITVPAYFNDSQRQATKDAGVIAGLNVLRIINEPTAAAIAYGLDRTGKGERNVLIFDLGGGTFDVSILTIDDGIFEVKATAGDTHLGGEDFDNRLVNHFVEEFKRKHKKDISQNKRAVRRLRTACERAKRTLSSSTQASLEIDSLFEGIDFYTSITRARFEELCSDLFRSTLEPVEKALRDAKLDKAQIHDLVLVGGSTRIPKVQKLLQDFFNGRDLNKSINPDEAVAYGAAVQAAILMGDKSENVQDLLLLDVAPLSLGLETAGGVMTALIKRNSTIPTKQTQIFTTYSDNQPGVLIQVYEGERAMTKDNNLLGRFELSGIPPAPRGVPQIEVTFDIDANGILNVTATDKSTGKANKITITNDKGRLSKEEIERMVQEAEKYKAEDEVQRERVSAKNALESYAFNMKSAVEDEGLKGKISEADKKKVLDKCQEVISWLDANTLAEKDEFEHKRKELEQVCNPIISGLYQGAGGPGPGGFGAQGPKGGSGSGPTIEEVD
UniProt P34931: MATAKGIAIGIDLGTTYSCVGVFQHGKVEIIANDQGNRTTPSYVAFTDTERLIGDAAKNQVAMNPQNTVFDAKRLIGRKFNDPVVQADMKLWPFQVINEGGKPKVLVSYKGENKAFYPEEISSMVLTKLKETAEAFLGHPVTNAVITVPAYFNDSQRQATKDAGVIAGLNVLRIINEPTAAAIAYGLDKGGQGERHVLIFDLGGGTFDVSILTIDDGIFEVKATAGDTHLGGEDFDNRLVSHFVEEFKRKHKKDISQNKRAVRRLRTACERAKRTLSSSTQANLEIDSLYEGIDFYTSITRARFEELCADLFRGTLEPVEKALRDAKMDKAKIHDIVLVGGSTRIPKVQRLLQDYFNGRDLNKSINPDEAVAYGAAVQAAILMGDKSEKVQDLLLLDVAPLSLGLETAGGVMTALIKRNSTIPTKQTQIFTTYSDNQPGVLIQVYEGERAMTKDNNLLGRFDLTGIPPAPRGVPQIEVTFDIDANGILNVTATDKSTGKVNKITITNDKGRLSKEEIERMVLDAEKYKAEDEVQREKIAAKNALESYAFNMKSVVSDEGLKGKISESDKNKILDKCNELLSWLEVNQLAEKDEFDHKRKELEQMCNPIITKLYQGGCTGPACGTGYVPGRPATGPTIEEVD
UniProt P11142: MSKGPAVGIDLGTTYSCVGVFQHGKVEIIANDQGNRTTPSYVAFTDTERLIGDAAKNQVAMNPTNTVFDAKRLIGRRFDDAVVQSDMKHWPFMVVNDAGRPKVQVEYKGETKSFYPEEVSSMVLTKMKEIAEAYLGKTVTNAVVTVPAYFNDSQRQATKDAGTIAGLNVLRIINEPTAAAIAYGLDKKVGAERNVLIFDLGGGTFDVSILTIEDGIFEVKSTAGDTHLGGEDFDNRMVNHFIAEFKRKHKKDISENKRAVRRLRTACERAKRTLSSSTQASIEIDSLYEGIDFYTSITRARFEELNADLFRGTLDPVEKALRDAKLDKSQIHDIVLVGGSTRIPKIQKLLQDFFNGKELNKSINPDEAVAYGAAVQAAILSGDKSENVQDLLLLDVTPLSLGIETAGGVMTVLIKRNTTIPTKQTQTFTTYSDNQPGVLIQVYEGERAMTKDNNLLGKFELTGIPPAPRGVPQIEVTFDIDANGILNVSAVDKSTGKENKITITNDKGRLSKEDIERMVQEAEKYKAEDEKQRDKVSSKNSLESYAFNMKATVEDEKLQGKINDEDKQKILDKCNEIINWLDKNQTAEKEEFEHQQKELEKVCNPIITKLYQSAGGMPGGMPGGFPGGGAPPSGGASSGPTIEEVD

Row | Substance | binding
1 | Flag-Ssa1 (from UniProt P10591 1-642) | binds
2 | Flag-Ssa4 (from UniProt P22202 1-642) | binds
3 | Hsp82-His (from UniProt P02829 1-709) | binds

Results, then the substance that gave them:

Row | binding | Substance
4 | binds | Flag-Ssa3 (from UniProt P09435 1-649)
5 | binds | Hsp82 (from UniProt P02829 1-709)
6 | binds | Ssa1 (from UniProt P10591 1-642)
7 | binds | Ydj1 (from UniProt P25491 1-409)

What follows are substances tested against T2, HA-APE2 (UniProt Q9UBZ4) (assay: co-IP; lysate (M-PER) of transfected HEK293 cells, 48 h after transfection; HA-APE2 held on anti-HA magnetic beads, 30 °C for 30 min; partners found by Western blot).
T2 sequence: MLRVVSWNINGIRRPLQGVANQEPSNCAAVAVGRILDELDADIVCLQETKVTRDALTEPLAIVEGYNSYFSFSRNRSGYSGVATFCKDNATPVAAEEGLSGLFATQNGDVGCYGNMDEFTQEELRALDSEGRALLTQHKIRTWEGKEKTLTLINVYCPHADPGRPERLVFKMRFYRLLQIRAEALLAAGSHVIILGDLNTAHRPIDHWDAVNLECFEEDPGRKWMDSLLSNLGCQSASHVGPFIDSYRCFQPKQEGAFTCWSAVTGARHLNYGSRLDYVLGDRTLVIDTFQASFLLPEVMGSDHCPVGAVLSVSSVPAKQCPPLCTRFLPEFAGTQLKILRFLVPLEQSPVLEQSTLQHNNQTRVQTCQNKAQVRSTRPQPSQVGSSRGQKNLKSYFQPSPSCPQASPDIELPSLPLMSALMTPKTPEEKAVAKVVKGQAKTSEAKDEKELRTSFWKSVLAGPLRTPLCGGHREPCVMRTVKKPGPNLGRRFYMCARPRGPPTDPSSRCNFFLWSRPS

Row | binding | Substance
8 | no binding | DNAJA1 (from UniProt P31689 1-397)
9 | binds | HSPA1A-V5 (from UniProt P0DMV8 1-641)
10 | binds | HSPA1L-V5 (from UniProt P34931 1-641)
11 | binds | HSPA8-V5 (from UniProt P11142 1-646)

Source: PMC9312491
